From PubChem BioAssay AID1030 (National Center for Advancing Translational Sciences (NCATS), 2008)
In all, about 220,000 compounds went through this assay and about 16,000 (7.3%) were called active. The shares of active, inactive and inconclusive entries below differ from those in the screen. The call rests on the fitted dose curve; in most records, active means well fitted inhibition curve with a large enough effect (not every such curve was filed as active); inconclusive means small, poorly fitted or top-dose-only effect, or another doubt; inactive means no such curve, though single readings can be large or run the other way. Potencies of inconclusive entries are left out as doubtful fits. More than one record can exist for a structure, and the calls need not agree.

Biological target: Aldehyde dehydrogenase 1A1 (Homo sapiens) (UniProt P00352)
Assay: qHTS Assay for Inhibitors of Aldehyde Dehydrogenase 1 (ALDH1A1);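 on activity, negative = inhibition: plate controls were no enzyme wells and a reference inhibitor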
Conditions: Purified ALDH1A1, NADH fluorescence, propionaldehyde substrate; series mostly up to 75.3 µM; activity, negative = inhibition: at the top concentration
Potency means the concentration at half of the fitted maximal effect; tags describe the fitted curve by direction and shape.

Sequence of UniProt P00352 (P00352 whole entry, looked up): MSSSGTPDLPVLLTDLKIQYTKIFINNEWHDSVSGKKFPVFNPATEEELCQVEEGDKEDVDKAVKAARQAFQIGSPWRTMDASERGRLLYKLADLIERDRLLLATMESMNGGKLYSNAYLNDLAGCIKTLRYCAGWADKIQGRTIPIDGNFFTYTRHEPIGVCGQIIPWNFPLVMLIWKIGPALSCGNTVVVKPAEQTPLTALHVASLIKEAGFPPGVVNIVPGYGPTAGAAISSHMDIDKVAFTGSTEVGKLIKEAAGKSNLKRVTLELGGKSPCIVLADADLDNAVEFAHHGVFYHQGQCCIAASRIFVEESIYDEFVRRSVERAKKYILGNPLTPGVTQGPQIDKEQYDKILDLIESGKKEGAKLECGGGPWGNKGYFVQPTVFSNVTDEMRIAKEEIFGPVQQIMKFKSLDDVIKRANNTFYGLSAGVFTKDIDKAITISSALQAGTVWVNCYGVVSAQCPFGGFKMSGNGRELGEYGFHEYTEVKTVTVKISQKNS

| Compound | Potency | activity, negative = inhibition |
| --- | --- | --- |
| CC(C)CCN1CC(C(=O)NCc2ccccc2)CC1=O (stereo not given) | inconclusive [inhibitor, single point] |  |
| NC(=S)n1[nH]c(-c2ccc([N+](=O)[O-])cc2)c(N=Nc2ccc(Cl)cc2)c1=O | inconclusive [inhibitor, partial curve] |  |
| Cc1ccc(-c2nc(CS(=O)(=O)CC(=O)N3CC(C)CC(C)C3)c(C)o2)cc1 (stereo not given) | inconclusive [inhibitor, partial curve] |  |
| O=C(CCC(=O)c1cccs1)NC(c1ccccc1)c1ccccc1 | inconclusive [inhibitor, single point] |  |
| CCOC(=O)CC(=O)CSc1ccc2nnc(-c3ccccc3)n2n1 | inconclusive [inhibitor, single point] |  |
| CCCC1CC(C)(C(=O)CSc2n[nH]c(-c3ccccc3)n2)OC1=O (stereo not given) | active: 10 µM |  |
| COc1ccc(/C=N/N2C(=O)C3C4C=CC(CC4)C3C2=O)c(OC)c1 (stereo not given) | active: 2.24 µM |  |
| O=C1c2ccccc2C(=O)C1Cc1cccc2ccccc12 | inconclusive [inhibitor, single point] |  |
| Cc1cccc(CN2CCN(c3nc4nonc4nc3NC3CC3)CC2)c1 | active: 15.8 µM |  |
| CC(C)(C)C(=O)c1cnc(Nc2ccccc2)s1 | inconclusive [inhibitor, partial curve] |  |
| Cc1cc(C)c2nc(-c3cccnc3)cc(C(=O)NC(C)c3cnn(C)c3C)c2c1 (stereo not given) | inconclusive [inhibitor, single point] |  |
| CC(=O)c1c(C)nc2ccccn12 |  | inactive: 3.66% |
| CCN(CC)S(=O)(=O)c1ccc(OC)c(NS(=O)(=O)c2ccc(F)cc2)c1 | inconclusive [inhibitor, partial curve] |  |
| O=C(Nc1ccc(Cl)c(S(=O)(=O)N2CCOCC2)c1)c1ccc(OCC2CCCO2)cc1 (stereo not given) | inconclusive [inhibitor, single point] |  |
| COc1ccc(/C=N/NC(=O)C2C(=O)NCC2c2ccccc2)c(OC)c1 (stereo not given) |  | inactive: -3.4% |
| O=C(COC(=O)c1cc[n+]([O-])cc1)NCc1ccccc1Cl |  | inactive: -8.34% |
| Nc1nnc(Cc2ccc(Cl)cc2Cl)s1 | inconclusive [inhibitor, single point] |  |
| Cn1cccc1C(=O)N1CCC2(CCN(C(=O)Nc3cccc(F)c3)CC2)CC1 |  | inactive: -1.64% |
| CCCSC1=C(C#N)C(c2ccccc2C)CC(=O)N1 (stereo not given) | inconclusive [inhibitor, single point] |  |
| O=C(N[C@H](CO)[C@H](O)c1ccc([N+](=O)[O-])cc1)C(Cl)Cl | active: 14.1 µM |  |
| O=C(COC(=O)c1ccccc1Oc1ccccc1)NCc1ccco1 | inconclusive [inhibitor, single point] |  |
| COCCn1cc(C(=O)N2CCC(C)CC2)c2c3ccccc3n(C)c2c1=O | inconclusive [inhibitor, partial curve] |  |
| CCC(=O)N1CCN(c2nc(C)nc3sc(C)c(C)c23)CC1 |  | inactive: -0.205% |

| Compound | Potency | activity, negative = inhibition |
| --- | --- | --- |
| COC1/C=C/OC2(C)Oc3c(C)c(O)c4c(O)c(c(/C=N/N5CCN(C)CC5)c(O)c4c3C2=O)NC(=O)/C(C)=C/C=C/C(C)C(O)C(C)C(O)C(C)C(OC(C)=O)C1C (stereo not given) |  | inactive: -2% |
| O=c1/c(=C\c2ccc3c(c2)OCO3)sc2n1CCCN=2 | inconclusive [inhibitor, partial curve] |  |
| CCCOc1ncnc2c1sc1nc3c(cc12)COC(C)(C)C3 | inconclusive [inhibitor, partial curve] |  |
| Cc1cc([N+](=O)[O-])nn1CC(=O)N/N=C/c1ccccc1Br |  | inactive: 1.68% |
| COc1cccc(-n2c(SCC(=O)N3CCc4ccccc43)nnc2-c2c[nH]c3ccccc23)c1 | inconclusive [inhibitor, single point] |  |
| Cc1ccccc1-c1nc(S(=O)(=O)c2ccc(Br)cc2)c(NCc2cccnc2)o1 | inconclusive [inhibitor, single point] |  |
| CCNC(=S)N(Cc1ccco1)Cc1cc2cc3c(cc2[nH]c1=O)OCCO3 | inconclusive [inhibitor, single point] |  |
| CCn1cc(-c2ccnc3cc(C(=O)O)nn23)c(C)n1 | inconclusive [inhibitor, partial curve] |  |
| CCCOc1ccc(N2C(=O)CC(N3CCN(CCN=CC4C(=O)CC(C)(C)CC4=O)CC3)C2=O)cc1 (stereo not given) | inconclusive [inhibitor, partial curve] |  |
| COc1cc(S(=O)(=O)N2CCCCC2)ccc1NC(=O)Cc1ccccc1 | inconclusive [inhibitor, single point] |  |
| CC(C(=O)NCC1CCCO1)c1ccc([N+](=O)[O-])cc1 (stereo not given) |  | inactive: 5.76% |
| CC(C)CC(=O)O/N=C1\C(=O)N(Cc2ccc(Cl)cc2)c2ccc([N+](=O)[O-])cc21 | inconclusive [inhibitor, single point] |  |
| COc1ccc(/C=N/NC(=O)c2ccoc2C)cc1OC | inconclusive [inhibitor, single point] |  |
| CCOc1cc(N2CCOCC2)c(OCC)cc1NC(=O)CN1CCCC1 | inconclusive [inhibitor, single point] |  |
| O=C(Nc1ccccc1Cl)C1CC(=O)n2c(nc3ccccc32)N1 (stereo not given) |  | inactive: 9.92% |
| COc1ccc(OCC#CCN2CC(C)OC(C)C2)cc1 (stereo not given) | active: 6.31 µM |  |
| Clc1cccc(Cl)c1C(Nc1nncs1)Nc1nncs1 | inconclusive [inhibitor, single point] |  |
| O=C(O)c1cc2c(s1)-c1ccccc1OC2 | inconclusive [inhibitor, partial curve] |  |
| O=C(c1ccncc1)N1CCC2(CC1)CN(c1ncccn1)C2 | inconclusive [inhibitor, single point] |  |
| Cc1ccc(C2CC(=O)Nc3c2ccc2ccccc32)cc1[N+](=O)[O-] (stereo not given) | inconclusive [inhibitor, single point] |  |
| O=C(O)C1OC(O)C(O)C(O)C1O (stereo not given) |  | inactive: 10.2% |
| CCN(c1ccccc1)S(=O)(=O)c1ccc(Cl)nc1 | inconclusive [inhibitor, single point] |  |
